Some entries of the source have several records that differ or are many. Only these are listed. There may be further records. The values listed for one entry are repeats in other runs, samples, wells, individuals or studies. A date in brackets names the month of the test. Brackets with × say how often a value occurs here.
Tested on: 931267-113-T-J1-PDC KRAS spheroid with HUVEC/MSC, viability
Experiment: Anticancer human tumor 931267-113-T-J1-PDC patient-derived colon adenocarcinoma cell line growth inhibition [KRAS2]
Conditions: for IC50: compound alone; for viability, T/C: stronger effect = lower value
Excerpt: Multicellular complex tumor spheroid response to RAS pathway inhibitors in combination with a targeted agents in patient-derived cell lines with oncogenic KRAS variants from multiple cancer types
A high-throughput screen of multi-cell type tumor spheroids was designed to identify active combinations of targeted small molecules and KRAS pathway inhibitors. Complex spheroids include a stromal component modeled by human endothelial cells (HUVEC) and fibroblasts modeled by human mesenchymal stem cells (MSCs). The concentration ranges selected for each drug and investigational agent were based upon clinically achievable concentrations if the clinical Cmax of the agent was known.
Compounds. The drugs and investigational agents: BI-3406 (NSC825286), BAY-293 (NSC824723), batoprotafib (TNO155; NSC825523), sotorasib (AMG 510; NSC818433), MRTX1257 (NSC819558), elimusertib (BAY 1895344; NSC800525), molibresib (GSK525762; NSC774829), temuterkib (LY3214996; NSC803410), venetoclax (NSC766270), alisertib (NSC759677), olaparib (NSC753686), talazoparib (NSC767125), erdafitinib (NSC781556), ipatasertib (NSC767898), cabozantinib (NSC761068), nintedanib (NSC756659), abemaciclib (NSC768073), docetaxel (NSC628503), trametinib (NSC758246), and sapanisertib (NSC764658) were obtained from the National Cancer Institute (NCI) Developmental Therapeutics Program Chemical Repository. The FDA-approved anticancer drug set is available from the Developmental Therapeutics Program. […] The stock solutions were prepared in dimethyl sulfoxide (DMSO, Sigma-Aldrich, St. Louis, MO, cat. D2650) at 800-fold the tested concentration and stored at -70 degrees C prior to their use. All drugs and investigational agents were tested over a range starting from a high concentration at or near the clinical Cmax and decreasing in half-log increments. If the clinical Cmax for an agent had not been determined, the highest concentration tested was 10 microM.
Cell Culture. All cells were maintained in an incubator at 37 degrees C and 5% CO2 with 95% humidity. The PDC lines were cultured according to standard operating procedures established by the NCI PDMR (https://pdmr.cancer.gov/sops/default.htm). Briefly, all PDCs were thawed and cultured in Matrigel-coated flasks prepared with a working solution of 1X Ham's F-12 nutrient mix, without supplementation (Invitrogen, Waltham, MA, cat. 11765054), 100 U/mL penicillin-streptomycin (Invitrogen, cat. 15140122), and 2.5% Matrigel (Corning Inc., Corning, NY, cat. 354248) for the first three passages. All PDCs were cultured in complete DMEM/F-12 media containing advanced DMEM/F-12 (Invitrogen, cat. 12634028), 4.9% defined fetal bovine serum, heat inactivated (HyClone Laboratories Inc., Logan, UT, cat. SH30070.03HI), 389 ng/mL hydrocortisone (Sigma-Aldrich, cat. H4001), 9.7 ng/mL human EGF recombinant protein (Invitrogen, cat. PHG0313), 23.4 microg/mL adenine (Sigma-Aldrich, cat. A2786), 97.3 U/mL penicillin-streptomycin (Invitrogen, cat. 15140122), 1.9 mM L-glutamine (Invitrogen, cat. 25030081), and 9.7 microM Y-27632 dihydrochloride (Tocris Bioscience, Bristol, United Kingdom, cat. 1254). The PDCs were cultured in complete DMEM/F12 media without 9.7 microM Y-27632 dihydrochloride for at least two passages prior to the screen. The established cell line HOP-62 was cultured in RPMI 1640 medium, HEPES (Invitrogen, cat. 22400105) with 10% defined fetal bovine serum (HyClone Laboratories Inc., cat. SH30070.03) and 2 mM L-glutamine (Invitrogen, cat. 25030081). The pooled donor HUVEC were cultured in endothelial cell growth medium 2 (PromoCell, Heidelberg, Germany, cat. C-22011) and the hMSC were cultured in mesenchymal stem cell growth medium 2 (PromoCell, cat. C-28009). For all experiments, HUVEC and hMSC were used at passages </=5, while the malignant cell lines were used at passages </=15. […]
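Note: compound exposure lasted 7 days before the readout.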
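Throughout, for viability, T/C: 100% = DMSO vehicle control viability.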

| Compound | viability, T/C (compound alone 0.1 µM) | viability, T/C (compound alone 1 µM) | viability, T/C (compound alone 0.0316 µM) | viability, T/C (compound alone 0.316 µM) | viability, T/C (compound alone 3.16 µM) | also measured |
| --- | --- | --- | --- | --- | --- | --- |
| CCNC(=O)CC1N=C(c2ccc(Cl)cc2)c2cc(OC)ccc2-n2c(C)nnc21 (configuration not stated) |  |  |  |  |  | IC50: 2.68 µM, 1.97 µM, > 10 µM, 1.79 µM, 2.53 µM |
| CC(C)NCC(C(=O)N1CCN(c2ncnc3c2C(C)CC3O)CC1)c1ccc(Cl)cc1 (configuration not stated) | 73.3, 86.1, 99.1, 90.5, 91.5% |  |  |  |  | IC50: > 10 µM, 6.95 µM, 6.41 µM, 7.3 µM, 5.9 µM |
| O=C(c1cc(Cc2n[nH]c(=O)c3ccccc23)ccc1F)N1CCN(C(=O)C2CC2)CC1 |  | 61.1, 96.4, 91.9, 97.1, 88.1% |  |  |  |  |
| C=CC(=O)N1CCN(c2nc(OCC3CCCN3C)nc3c2CCN(c2cccc4cccc(C)c24)C3)CC1CC#N (configuration not stated) | 82.3, 85.9, 93.9, 82.7, 87.7, 72, 89.6, 88.1, 96, 93.7, 82.9% [2021-08] and 81.8, 90.5, 90.8, 100, 92.6, 104% [2021-09] | 91.1, 73.1 (2×), 94.6, 67.9, 61.7, 64.7, 89.4, 94.3, 82.7, 94% [2021-08] and 85.6, 77.1, 97.1, 97.7, 71.4, 88.5% [2021-09] | 85.6 (2×), 93.6, 92.9, 84.5, 99.2, 87.9, 89, 115, 91.1, 93.8% [2021-08] and 96.3, 82.7, 88, 88.5, 82.3, 88.9% [2021-09] | 102, 66.2, 81, 84.7, 85, 84.3, 69.2, 84.4, 90.9, 78.5, 86.8% [2021-08] and 88.5, 73.4, 78.4, 101, 92, 85.2% [2021-09] | 90.5, 0.21, 0.25, 0.27, 0.15, 5.73, 11.6, 0.42, 5.72, 1.27% [2021-08] and 0.33, 7.82, 0.28, 0.99, 0.88, 0.26% [2021-09] | IC50 (run of 08/19/2021): 1.3 µM and > 3.16 µM, 1.35 µM, 1.68 µM, 1.36 µM, 1.23 µM [2021-08] |
| CC1OCC2(CCN(c3cnc(Sc4ccnc(N)c4Cl)c(N)n3)CC2)C1N (configuration not stated) | 96.3, 92.2 (2×), 82.8, 82, 73.1, 74, 93.6, 79.3, 83, 101% [2021-08] and 78.6, 100, 94.8, 80.1, 74.9, 92.7, 91.7, 81.8% [2021-09] | 101, 80.8, 85.5, 69.6, 66.7 (2×), 64.2, 83.7, 77.3, 80, 70.1% [2021-08] and 95, 71.8, 72.5, 84.4, 75.2, 80.8, 68.7, 74.7% [2021-09] |  | 78.2, 70.9, 71.4, 66.7, 73, 60, 82.4 (2×), 78.9, 79.8, 83% [2021-08] and 74.8, 75.2, 73.2, 92.5, 66.4, 73.8, 94.7, 56.4% [2021-09] | 51.3 (2×), 50.3, 58.5, 54.5, 56, 82, 78.2, 79.3, 67.9, 90.1% [2021-08] and 69.6, 72.1, 78.3, 56.2, 59.8, 92.7, 77.1, 62.6, 71.2% [2021-09] | viability, T/C (compound alone 10 µM): 67.6, 67.7, 64.7, 62.2, 75.2, 52.3, 76.2, 75.5, 94.7, 74.8, 81.8% [2021-08] and 73.8, 76.8, 89.6, 63.8, 65.2, 68.3, 75.5, 81.3, 64.2% [2021-09] |
| Cn1ncnc1[C@H]1c2n[nH]c(=O)c3cc(F)cc(c23)N[C@@H]1c1ccc(F)cc1 | 89.2, 72.7, 83.6, 98.3, 87.1% |  |  |  |  |  |
| CN(C)C/C=C/C(=O)Nc1cc2c(Nc3ccc(F)c(Cl)c3)ncnc2cc1O[C@H]1CCOC1 |  |  | 73.1, 61.4, 72.6, 104, 98.4% |  |  | viability, T/C (compound alone 0.001 µM): 93.7, 75.1, 79, 107, 95.6%; viability, T/C (compound alone 0.00316 µM): 65.4, 74.8, 90.7, 81.8, 83.4% |
| C=CC(=O)N1CCN(c2nc(=O)n(-c3c(C)ccnc3C(C)C)c3nc(-c4c(O)cccc4F)c(F)cc23)C(C)C1 (configuration not stated) |  | 104, 109, 118, 123, 100, 126, 80, 96.8, 85, 101, 85.6% [2021-08] and 80.5, 96.5, 88, 84.8, 82.6, 105% [2021-09] |  | 114, 113, 98.2, 86.2, 102, 97.5, 80, 87.4, 79.7, 88.1, 92.5% [2021-08] and 84.3, 93.7, 109, 73.8, 97.8, 93.4% [2021-09] | 93.1, 113, 96.4, 122, 104, 116, 71.1, 114, 108, 94.8, 84.8% [2021-08] and 88.6, 89.5, 106, 79.4, 86.8, 88.7% [2021-09] | viability, T/C (compound alone 10 µM): 70.2, 129, 131, 107, 100, 99.2, 85.4, 92.3, 96.9, 98.3, 78.6% [2021-08] and 87.8, 102, 95.6, 104, 96.8, 84.3% [2021-09] |
| CC(=O)OC12COC1CC(O)C1(C)C(=O)C(O)C3=C(C)C(OC(=O)C(O)C(NC(=O)OC(C)(C)C)c4ccccc4)CC(O)(C(OC(=O)c4ccccc4)C21)C3(C)C (configuration not stated) |  | 87.5, 74.5, 93.8, 101, 84.2% |  |  | 94.3, 93.5, 85.6, 69.2, 81% | viability, T/C (compound alone 0.01 µM): 72.6, 80.6, 98.8, 86.6, 106% |
| CNCc1ccccc1-c1csc(C(C)Nc2nc(C)nc3cc(OC)c(OC)cc23)c1 (configuration not stated) | 99.5, 102 (2×), 84.2, 79.2, 91.6, 74.8, 101, 91.3, 74, 85.6% [2021-08] and 87.2, 99.8, 97.7, 65.7, 92.4, 95% [2021-09] | 88.9, 90.7, 90.5, 87.6, 6.78, 41, 55.2, 67.8, 55.8, 53.6, 68.4% [2021-08] and 48.6, 63.7, 64, 58.9, 49.9, 42.8% [2021-09] |  | 105, 92.3, 86.2, 84.2, 106, 102, 67.6, 84, 86.8, 74.1, 85.8% [2021-08] and 74.8, 70.5, 74.4, 83.7, 80, 77.4% [2021-09] | 114, 0.4, 0.46, 0.51, 0.3, 0.37, 0.1, 0.14, 0.07, 0.25% [2021-08] and 0.11, 0.09, 0.08, 0.1% [2021-09] | IC50 (run of 08/19/2021): 582 nM and 5.69 µM, 1.68 µM, 1.63 µM, 1.59 µM, 844 nM [2021-08] |
| COc1cc2nccc(Oc3ccc(NC(=O)C4(C(=O)Nc5ccc(F)cc5)CC4)cc3)c2cc1OC | 86.8, 105, 103, 126, 109% |  | 99.5, 109, 79.1, 106, 102% |  |  | viability, T/C (compound alone 10 µM): 68.6, 68.3, 56.9, 42.7, 59.9% |
| CC(C)n1nc(-c2ccc3oc(N)nc3c2)c2c(N)ncnc21 |  |  |  |  |  | IC50: 7.13, 4.39, 5.51, 14.3, 6.66 nM; viability, T/C (compound alone 0.01 µM): 43.1, 36.4, 39, 62.3, 42.1% |
| Cn1nccc1Nc1nccc(-c2cc3c(s2)C(C)(C)N(CCN2CCOCC2)C3=O)n1 | 105, 99.5, 74.3, 90.5, 97.8% |  |  |  |  |  |
| CC1COCCN1c1cc(-c2ccnn2C)c2ccnc(-c3ccn[nH]3)c2n1 (configuration not stated) |  |  | 77.4, 63.6, 92.2, 63.7, 69.3% |  |  | viability, T/C (compound alone 0.01 µM): 78.7, 70.9, 120, 101, 90.5% |
| COc1cc2nc(C)nc(NC(C)c3cc(N)cc(C(F)(F)F)c3)c2cc1OC1CCOC1 (configuration not stated) | 69.1, 107, 96.4, 90.7, 87.4, 83.7, 69.5, 98.5, 93.5, 91.8, 90.8% [2021-08] and 81.8, 82.7, 77.9, 81.4, 64.4, 85.8% [2021-09] | 90.5, 61.8, 94.5, 72.8, 87.3, 78.9, 75.7, 111, 83.1, 89.3, 76.6% [2021-08] and 84.3, 87.9, 80, 77.6, 89.3, 87.7% [2021-09] |  | 79.5, 100, 73.5, 82.7, 77.8, 91, 77.6, 88.9, 89.4, 95.7, 82.8% [2021-08] and 100, 83, 87.8, 85, 93.3, 88.1% [2021-09] | 98.8, 81.7, 88.2, 96.4, 87.5, 87.4, 62.2, 85.6, 77.7, 75.8, 77.9% [2021-08] and 80.6, 69, 66.8, 67.6, 88, 63.8% [2021-09] | viability, T/C (compound alone 10 µM): 82.4, 66.8, 90.6, 16.5, 33, 2.47, 0.92, 1.48, 1.24, 0.6, 0.76% [2021-08] and 2.59, 2.56, 1.87, 4.24, 4.66% [2021-09]; IC50 (run of 08/19/2021): > 10 µM, 5.73 µM, 6.87 µM, 5.16 µM |
| COc1cc(OC)cc(N(CCNC(C)C)c2ccc3ncc(-c4cnn(C)c4)nc3c2)c1 |  |  | 120, 102, 98.1, 101, 91.3% |  | 60.8, 68.7, 92.4, 60.9, 75.3% |  |

From PubChem BioAssay AID1963863 (Molecular Pharmacology Branch, DTP, NCI, 2024)
